In PubChem BioAssay AID256 (DTP/NCI, 2004):
Inconclusive results and toxic doses are left out. A number of entries come with more than one value. The list is limited to them. An entry can have further records. The records of an entry do not match, cause unknown; they may come from other doses, times, organisms or constructs than stated.

Test system: CD2F1 mice, L1210 leukemia ip, survival T/C
Assay: NCI In Vivo Anticancer Drug Screen. Data for tumor model L1210 Leukemia (intraperitoneal) in CD2F1 (CDF1) mice
Conditions: vehicle: saline, higher = longer survival
Method: The antitumor activity of compounds was measured in mice bearing transplantable tumors. Survival or tumor size were measured and the results are expressed as the measurement made in the treated group (T) divided by the measurement made in the vehicle treated control group (C). The tumor model used in this assay is L1210 Leukemia (intraperitoneal) in CD2F1 (CDF1) mice

In the case of O=C1C=CN(C2OC(CO)C(O)C2O)C(=O)C1 (stereo not drawn), the T/C (endpoint: median survival time, dose: 100.0 mg/kg/injection, schedule: Q01DX009 (ip)) is reported as 110 % of control and 180 % of control.
COc1cccc2c1C(=O)c1c(O)c3c(c(O)c1C2=O)CC(O)(C(=O)CO)CC3OC1CC(N)C(O)C(C)O1 (stereo not drawn) was tested, and the T/C (endpoint: mean survival time, dose: 10.0 mg/kg/injection, schedule: Q04DX003 (ip)) was 123 % of control and 150 % of control.
NCCCNCCCCNC(=O)C(O)NC(=O)CC(O)CCCCN=C(N)N (stereo not drawn) was tested, and the T/C (endpoint: median survival time, dose: 0.78 mg/kg/injection, schedule: Q01DX009 (ip)) was 117 % of control and 150 % of control.
